Assay results from publication PMC4336329 (PLoS ONE, 2015).
Out of some 310,000 compounds screened, about 14,000 (4.5%) showed an effect of 50% or more. Effects have a minus sign here. The list shows a part of the results.

These compounds were tested against human ether-à-go-go-related gene (hERG) potassium channel (human, UniProt Q12809) (assay: primary screen, population patch clamp on CHO cells stably expressing hERG).
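Further: peak tail current of the secondary pulse compared with the same well before compound.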

human ether-à-go-go-related gene (hERG) potassium channel, sequence (Q12809 whole entry, looked up): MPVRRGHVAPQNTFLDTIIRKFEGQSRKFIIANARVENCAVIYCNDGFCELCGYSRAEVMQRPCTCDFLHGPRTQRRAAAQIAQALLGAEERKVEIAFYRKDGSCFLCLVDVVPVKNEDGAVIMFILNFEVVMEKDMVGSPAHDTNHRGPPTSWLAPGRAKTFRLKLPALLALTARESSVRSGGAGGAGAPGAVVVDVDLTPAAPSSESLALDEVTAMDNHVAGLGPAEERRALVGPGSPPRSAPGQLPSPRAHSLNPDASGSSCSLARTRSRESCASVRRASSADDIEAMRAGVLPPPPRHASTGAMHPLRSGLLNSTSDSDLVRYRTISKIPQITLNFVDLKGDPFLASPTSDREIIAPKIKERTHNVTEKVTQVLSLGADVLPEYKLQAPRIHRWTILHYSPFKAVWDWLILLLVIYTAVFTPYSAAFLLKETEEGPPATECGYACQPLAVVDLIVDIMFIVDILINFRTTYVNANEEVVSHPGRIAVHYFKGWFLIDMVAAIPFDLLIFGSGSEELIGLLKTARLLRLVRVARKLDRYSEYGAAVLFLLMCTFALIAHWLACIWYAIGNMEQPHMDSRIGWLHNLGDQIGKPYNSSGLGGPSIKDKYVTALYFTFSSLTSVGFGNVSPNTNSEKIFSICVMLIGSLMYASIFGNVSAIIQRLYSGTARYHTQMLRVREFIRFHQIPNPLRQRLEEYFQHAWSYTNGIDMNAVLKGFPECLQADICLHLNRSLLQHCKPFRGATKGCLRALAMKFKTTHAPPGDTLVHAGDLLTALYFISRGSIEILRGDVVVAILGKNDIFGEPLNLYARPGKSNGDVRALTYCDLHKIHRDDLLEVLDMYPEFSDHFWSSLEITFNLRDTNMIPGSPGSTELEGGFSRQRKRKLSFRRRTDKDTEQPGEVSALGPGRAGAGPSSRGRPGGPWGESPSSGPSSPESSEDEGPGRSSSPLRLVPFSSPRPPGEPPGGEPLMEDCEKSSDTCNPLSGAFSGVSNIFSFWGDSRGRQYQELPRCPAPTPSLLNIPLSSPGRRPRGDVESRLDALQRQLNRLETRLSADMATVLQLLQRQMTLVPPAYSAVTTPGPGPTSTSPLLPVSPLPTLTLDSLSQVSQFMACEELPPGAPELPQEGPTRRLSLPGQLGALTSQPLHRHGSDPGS

Row | Structure (SMILES) | hERG current change (%, negative = inhibition) at 10uM
1 | CC1(C)CC(NC(=O)C(=O)NCCc2ccccc2)CC(C)(C)N1 | 1.81%
2 | COc1ccc(C2=CC(=O)OC(C)(c3ccccc3)O2)cc1 (centres unmarked) | -0.79%
3 | CCOc1ccccc1CNC(=O)Cn1nc(C)c2c(C)n(-c3ccc(C)cc3)nc2c1=O | -4.68%
4 | COC(=O)CN(C)C(=O)c1ccc(OC2CCN(S(=O)(=O)N(C)C)CC2)cc1 | 3.7%
5 | c1ccc(SCc2cn(C[C@H]3CC[C@@H]([C@@H]4CC[C@H](Cn5cc(CSc6ccccc6)nn5)O4)O3)nn2)cc1 | -62.1%
6 | CCCn1c(=O)c(F)cn(Cc2ccc(OC)c([N+](=O)[O-])c2)c1=O | -11.8%
7 | Cc1ccc(-c2csc3nnc(SCC(=O)NCc4ccco4)n23)cc1 | -17.6%
8 | Nc1ccc(N=Nc2ccccc2Cl)c(N)n1 | 10.7%
9 | CCC(=O)NC(=S)Nc1ccc(S(=O)(=O)NC2CCCCC2)cc1 | -4.84%
10 | CC[C@@H](C)[C@H](NC(=O)CNC(=O)Cc1c(C)c2c(cc(C)c3c(C)coc32)oc1=O)C(=O)O | 0.0635%
11 | Cc1ccc(S(=O)(=O)N2C(=O)/C(=C3\SC(=S)NC3=O)c3ccccc32)cc1 | 10%
12 | Cc1ccc2cccc(OCC(=O)N3CC(C)CC(C)C3)c2n1 (centres unmarked) | 15.4%
13 | Cc1scc(-c2n[nH]c(=S)n2Cc2ccccc2)c1C | 4.69%
14 | COC(=O)c1ccc(CNC(=O)C23CC4CC(CC(C4)C2)C3)cc1 | -8.56%
15 | CCOC(=O)CNC(=O)CSc1nnc(-c2cccc(C)c2)n1-c1ccc(OC)cc1 | -62%
16 | CCn1c(=O)c(C(=O)NNC(=O)c2ccccc2)c(O)c2ccccc21 | 11.9%
17 | CC(C)CCN(CCC(C)C)C(CO)(CO)CO | 16.9%
18 | Cl.O=C(COc1ccccc1Cc1ccccc1)NCCCN1CCOCC1 | -32.1%
19 | COc1cccc(-c2c(C(=O)N/N=C(\C)c3ccco3)nnn2-c2nonc2N)c1 | 9.95%
20 | Cc1ccc2c(c1)N(C(=O)CCC(=O)NCc1ccccn1)CC(C)O2 (centres unmarked) | -7.23%
21 | CCc1nnc(NC(=O)CSc2nnc(C(C)NC(=O)c3ccccc3F)n2C)s1 (centres unmarked) | 9.22%
22 | CC(=O)c1c(N=CN(C)C)nc(C)nc1-c1ccccc1 | 2.08%

Row | Structure (SMILES) | hERG current change (%, negative = inhibition) at 10uM
23 | CC(C)c1ccccc1NC(=O)c1cccc(NC(=O)c2ccccc2)c1 | -17.2%
24 | CCCN(CCC)CC(O)CN1C(=O)N(CN2C(=O)N(CC(O)CN(CCC)CCC)C(=O)C2(C)C)C(C)(C)C1=O (centres unmarked) | 14.4%
25 | Cc1cccc(NC(=O)CC(C)S(=O)(=O)c2ccc3c(c2)NC(=O)CO3)c1C (centres unmarked) | -4.88%
26 | Nc1ccc(N(c2ccccc2)c2ccc(N)cc2)cc1 | -12.5%
27 | COc1ccc(C)cc1NS(=O)(=O)c1ccc2c(c1)NC(=O)C(C)S2 (centres unmarked) | 2.3%
28 | CCOC(=O)N1CCN(Cc2nc3cc(NC(=O)CC)ccc3n2C)CC1 | 19.8%
29 | CCCn1cc(CN2CCc3ccc(NC(=O)C4CCCO4)cc3C2)c(C)n1 (centres unmarked) | 14.7%
30 | CSCCC(NC(=O)c1cc(C)oc1C)C(=O)O (centres unmarked) | -10%
31 | O=C(Cc1cccs1)N=Nc1c(O)[nH]c2ccccc12 | 7.07%
32 | Cc1ccccc1C(=O)Nc1nnc(-c2ccc(C(C)(C)C)cc2)s1 | 13%
33 | COc1cccc(NC(=O)NC2CCCCC2C)c1 (centres unmarked) | 0.121%
34 | O=C(O)C(=O)O.O=C(c1ccccc1)N1CCN(CC(O)Cn2ccc3ccccc32)CC1 (centres unmarked) | -31.5%
35 | C=CCN(c1ccc(C(=O)Nc2ccc(NC(C)=O)cc2)cc1)S(C)(=O)=O | 18.7%
36 | O=C(O)CSCc1c(F)cccc1Cl | -2.09%
37 | Cc1cc(C)cc(NC(=O)COC(=O)Cc2ccccc2F)c1 | -4.21%
38 | O=C1C=C(c2ccc3ncccc3c2)C[C@@H](c2ccc(F)cc2)C1 | -62.5%
39 | COC(=O)C1=C(c2ccc(OC)c(OC)c2)C[C@@H]2CC[C@H]1N2C(=O)NCc1cc(C)oc1C(F)(F)F | 1.86%
40 | Cc1cc(C)c2nc(N3C(=O)C(O)=C(C(=O)c4ccco4)C3c3cccc(O)c3)sc2c1 (centres unmarked) | 10.7%
41 | COc1ccc(C(=O)Nc2nnc(Cc3ccccc3)s2)c(OC)c1 | -4.24%
42 | CCOC(=O)c1c(C)[nH]c(C(=O)C(Cc2ccccc2)N(C)C)c1C.Cl (centres unmarked) | -9.75%
43 | CN1CCN(C(=O)CNC(=O)Cc2ccc(Cl)cc2)CC1 | 5.31%
44 | Cc1cc2ccccn2c1C(=O)c1ccc([N+](=O)[O-])cc1[N+](=O)[O-] | 23.4%

Row | Structure (SMILES) | hERG current change (%, negative = inhibition) at 10uM
45 | COc1ccccc1CNC(=O)C1CC(=O)N(c2ccc(C)c(C)c2)C1 (centres unmarked) | 2.85%
46 | Cc1ccc(C)c(NS(=O)(=O)c2cc(C(=O)NCCC3=CCCCC3)ccc2C)c1 | -15.6%
47 | CCOC(=O)c1cc2cc(CC(=O)c3ccc(OCC)cc3O)ccc2o1 | 9.22%
48 | COc1ccc(NC(=O)/C(=C\c2ccc3c(c2)OCO3)NC(C)=O)cc1 | 0.111%
49 | Cc1ccc(C)c(OCCNc2ncccc2[N+](=O)[O-])c1 | 2.67%
50 | CCOc1ccc(NC(=O)CCC(=O)n2nc(C)cc2C)cc1 | -11.8%
51 | COc1ccc(C(c2nnnn2C(C)(C)C)N2CCN(C(=O)c3ccco3)CC2)cc1 (centres unmarked) | -37.4%
52 | COC(=O)C1CCN(c2ccc([N+](=O)[O-])cc2)CC1 | -21.7%
53 | CCOc1ccc(NC(=O)NCCCN2CCCC2)cc1 | -1.89%
54 | COc1ccc(C(=O)COC(=O)c2ccc(NC(=O)c3ccccc3)cc2)cc1 | -4.73%
55 | S=c1[nH]c(-c2ccccc2)cn1/N=C/c1cccc2ccccc12 | 24.1%
56 | Cc1noc(C)c1S(=O)(=O)N(CC(=O)Nc1ccc2c(c1)OCO2)c1ccc(C(C)C)cc1 | 10.2%
57 | Cc1ccc(C(=O)NC2=NCCS2)cc1 | 4.59%
58 | COc1ccc(C(=O)NC2CCCc3c2cnn3-c2ccccc2F)o1 (centres unmarked) | -3%
59 | CCOc1ccc(N=C(/C(C(=O)C(=O)N2CCOCC2)=C(/O)c2ccccc2)c2ccccc2)cc1 | 15.6%
60 | CC(/C=C/C1(O)C(C)CC(=O)CC1(C)C)OC1OC(CO)C(O)C(O)C1O (centres unmarked) | 4.5%
61 | CCOC(=O)COc1c(Br)cc(C2NC(=O)NC(C)=C2C(C)=O)cc1OC (centres unmarked) | 7.28%
62 | O=C(COC(=O)CC1CCCC1)Nc1cccc(F)c1 | -1.79%
63 | CCOc1ccc(C(=O)Nc2ccc(S(=O)(=O)N3C[C@@H]4C[C@@H](C3)c3cccc(=O)n3C4)cc2)cc1 | -10.8%
64 | CC(C)OC(=O)CSc1nnc(-c2ccc(Cl)cc2Cl)n1N | -4.95%
65 | COCCn1c(=N)c(C(=O)NCc2ccco2)cc2c(=O)n3cc(C)ccc3nc21 | -82.1%
66 | O=C(CC1C(=O)N(c2ccccc2)C(=O)N1C1CCCCC1)Nc1ccccc1 (centres unmarked) | 14.1%

Row | Structure (SMILES) | hERG current change (%, negative = inhibition) at 10uM
67 | COc1cc(/C=N\n2nnnc2N)ccc1OCc1ccc(F)cc1 | -15.4%
68 | NC(=O)C1CCN(C(=O)c2ccc(-c3ccccc3Cl)o2)CC1 | -12.8%
69 | CCOP(=O)(Cc1cc(C#N)oc1C)OCC | -2.98%
70 | COc1ccccc1/C=N\Nc1cn[nH]c(=O)c1Cl | 10.4%
71 | COC(=O)CNC(=O)/C=C/c1ccc(OC)cc1 | 15.2%
72 | COc1ccc(C(CC(=O)N2CCCCC2)NC(=O)C(F)(F)F)cc1 (centres unmarked) | -0.0719%
73 | COc1ccccc1CNC(=O)COC(=O)c1cc(-c2ccco2)nc2ccccc12 | 7.57%
74 | COc1ccc(/C=C/C(=O)N2CCN(S(=O)(=O)/C=C/c3ccccc3)CC2)cc1OC | 7.66%
75 | Cc1cnc(C)c(N2CCN(Cc3nc(-c4ccc(C)o4)oc3C)CC2)n1 | -9.62%
76 | CCOc1ccccc1NC(=O)N1CCN(S(C)(=O)=O)CC1 | 17.5%
77 | O=C(NC1CCCCC1)N(Cc1nc2ccccc2c(=O)[nH]1)C1CCCC1 | -7.4%
78 | COc1cccc(CNC(=O)CSc2ccc(-c3cccs3)nn2)c1 | 1.8%
79 | O=C(Cc1ccc(Cl)cc1)N/N=C/c1ccncc1 | -27.3%
80 | CCSc1ncc(Cl)c(C(=O)Nc2ccccc2C)n1 | 12.6%
81 | Cc1cn(CCC(=O)Nc2ccc(N3CCOCC3)cc2)c2ccccc12 | -29.6%
82 | NC(=O)c1ccc(NC(=O)COC(=O)c2n[nH]c3ccccc23)cc1 | 0.681%
83 | CCN(C(=O)COC(=O)/C(C#N)=C/c1ccc(OC)cc1)C1CCS(=O)(=O)C1 (centres unmarked) | 1.49%
84 | COc1ccc(/C=C2/C(=O)N(c3c(F)c(F)c(F)c(F)c3F)N=C2C)cc1 | 6.49%
85 | CCN1CCN(C2CCCCC2NS(=O)(=O)c2ccc(Cl)cc2)CC1 (centres unmarked) | -61.8%
86 | COc1ccc(/C=N/Nc2nc(C)cc(-c3ccccc3)n2)cc1OC | -16.6%
